B1: LINE1-full (parent)
chain: UACGUAGGUGGUUUUCCCCUGAUAGUGCUAAGGGGGCCUGGAAGUUUGGACUGGGCAGAGCUCAACACAGCGUGGCAAAGUGGCUGUGGCUAGACUGCCUCUCUGGAUUCCUCGUCACUCAGCAGGGCAUCUCUGAGAGAAAUGCC

Read counts are not given, so values of variants with three or more changes are uncertain.

Consider 39 variants from the RNAGym collection of RNA variant scans (doi:10.7554/elife.90254).

Variants of B1 are the subject of this series. Put plainly: self-cleavage, relative activity (ratio to wild type); higher = more cleavage; in vitro, sequencing; the parent is a self-cleaving ribozyme.
As for UACUUAGGUGGUAUUCCCCUGACAGUGCUAAGGGGGCCUGGAAGUUUGGACUGGGCAGAGCUCAACACAGCGUGGCAAAGUGGCUGUGGCUGGACUGCCUCUCUGGAUUCCUCGUCACUCUGCAGGGCAUCUCUGAGAGAAAUGCC [G4U U13A U23C A92G A121U], the self-cleavage amounted to 0.24. With UACUUAGGUGGUUUUCCCCUGACAGUGCUAAGGGGGCCUGGAAGUUUGGACUGGGCAGAGCUCAACACAGCGUGGCAAAGUGGCUGUGGCUAGACUGCCUCUCUGGAUUCCUCGUCUCUCAGCAGGGCAUCUCUGAGAGAAAUGCC [G4U U23C A117U], the self-cleavage was found to be 1.61. In the case of UACCUAGGUGGUUUUCCCCUGACAGUGCUAAGGGGGCCUGGAAGUUUGGACUGGGCAGAGCCCAACACAGCGUGGCAAAGUGGCUGUGGCUAGACUGCCUCUCUGGAUUCCUCGUCACUCAGCAGGGCAUCUCUGAGAGAAAUGCC [G4C U23C U62C], the self-cleavage turned out to be 0.17. With UACUUAGGUGGUUCUCCCCUGAUAGUGCUAAGGGGGCCUGGAAGUUCGGACUGGGCAGAGCUCAACACAGCGUGGCAAAGUGGCUGUGUCUAGACUGCCUCUCUGGAUUCCUCGUCACUCAGCAGGGCAUCUCUGAGAGAAGUGCC [G4U U14C U47C G89U A142G] the figure was 0.05; with UACGAAGGUGGUUUUCCCCUGGUAGUGCUAAGGGGGCCUGGAAGUUUGGACUGGGCAGAGCUCAGCACAGCGUGGCUAAGUGGCUGUGGCUAGACUGCCUCUCUGGAUUCCUCGUCACUCAGCAGGGCAUCUCUGAGAGAAAUGCC [U5A A22G A65G A77U], 0.14; with UACGAAGGUGGUUUUCCCCUGAUAGUGCUAAGGGGGCCUGGAAGUUUGGACUGGGCUGAGCACAACACAGCGUGGCAAAGUGGCUGUGGCUAGACUGCCUCUCUGGAUUCCUCGUCACUCAGCAGGGCAUCUCUGAGAGAAAUGCC [U5A A57U U62A], 0.19. With UACGAAGGUGGUUUUCCCCUGGUAGUGCUAAGGGGGCCUGGAAGUUUGGACUGGGCAGAACCCAACACAGCGUGGCAAAGUGGCGGUGGCUAGACUGCCUCUCUGGAUUCCUCGUCACUCAGCAGGGCAUCUCUGAGAGAAGUGCC [U5A A22G G60A U62C U85G A142G] the figure was 0.81. The result for UACGAAGGUGGUUUUCCCCUGAUAGUGCUAAGGGGGCCUGGAAGUUUGGAUUGGGCAGAGCUCAACACAGCGUGCCAAAGUGGCUGUGGCUAGACUGCCUCUCUGGAUUCCUCGUCACUCAGCAGGGCAUCUCUGAGAGAAAUGCC [U5A C51U G75C] reads 0.84. Take UACCUAGGUGGUUUUCCCCUGAUAGUGCUAAGGAGGCCUGGAAGUUUGGACUGGGCAGAGCUCAACACAGCGUGGCAAAGUGGCUGUGGCUAGACUGCCUCUCUGGAUUCCUCGUCACUCAGCAGGGCAUCUCUGAGAGAAGUGCC [G4C G34A A142G]: the self-cleavage stood at 1.25. As for UACUCAGGUGGUUUUCCCCUGAUGGUGCUAAGGGGGCCUGGAAGUUUGGACUGGGCAGAGCUCAACACAGCGUGGCAAAGUGGCUGUGGCUAGACCGCCUCUCUGGAUUCCUCGUCACUCAGCAGGGCAUCUCUGAGAGAAAUGCC [G4U U5C A24G U96C], the self-cleavage was found to be 0.95. With UACUUAGGUGGUUUUCCCCUGAUAGUGCUAAGGGGGCCUGGAAGUUUGGACUGGGCAGAGCUCAACACAGCGUGGCAAAGUGGCUGUGGCUAGACUGCCACUCUGGAUUCCUCGUCACUCAGCAGGGCAUCUCUGAGAGAAAUCCC [G4U U100A G144C] the figure was 0.73; with UACGAAGGUGGUUUUCCCCUGAUAGUGCUAAGGGGGCCUGGAAGUUUGGACUGGGCAGAGCUCAACACAGCGUGGCAAAGUGGCUGUGGCUAGACUGCCUCUCUGGAUUCCUCGUCACUCAGCGUGGCAUCUCUGAGAGAAAUGCC [U5A A124G G125U], 1.09; with UACGAAGGUGGUUUUCCCCUGAUAGUGCUAAGGGGGCCUGGAAGUUUGGACUGGGCAGAGCUCAACUCGGCGUGGCAAAGUGACUGUGGCUAGACUACCUCUCUGGAUUCCUCGUCACUCAGCAGGGCAUCUCCGAGAGAAGUGCC [U5A A67U A69G G83A G97A U134C A142G], 0.02. In the case of UACGAAGGUGGUUUUCCCCUGAUAGUGCUAAGGGGGCCUGGAAGUUUGGACUGGGCAGAGCUCAACACAGCGUGGCAAAGUGGCUGUGGCUAGUCUGCCUCUCUGGAUACCUCGUCACUCAGCAGGGCAUCUCUGAGAGAAAUGCC [U5A A94U U109A], the self-cleavage was determined as 0.3. With UACUUAGGUGGUUUUCCCCCGAUAGUGCUAAGGGGGCCUGGAAGUUUGGACUGGGCAGAGCUCGGCACAGCGUGGCUAAGUGGCUGUGGCUAGACUGCCUCUCUGGAUUCCUCGUCACUCAGCAGGGCAACUCUGAGAGAAAUGCC [G4U U20C A64G A65G A77U U130A] the figure was 0.11; with UACGAAGGUGGUUUUCCCCUGAUAGUGCUAAUGGGGCCUGGAAGUUCUGACUGGGCAGAGCUCAACACAGCGUGGCAAAGUGGCUGUGGCUAGACUGCCUCUCUGGAUUCCUCGUCGCUCAGCAGGGCUUCUCUGAGAGAAAUGCC [U5A G32U U47C G48U A117G A129U], 0.36; with UACGAAGGUGGUUUUCCCCUGAUAGUGCUGAGGGGGCCUCGAAGUUUGGACUGGGCAGAGCUCAACACAGCGUGGCAAAGUGACUGUGGCUAGACAGCCCCUCUGGAUUCCUCGUCACUCAGCAGGGCAUCUCUGAGUGAAAUGCC [U5A A30G G40C G83A U96A U100C A138U], 0.2. The result for UACGAAGGUGGUUUUCCCCUGAUAGUGCUAAGGGGGCCUGGAAGUUUGGAAUGGGCAGAGCCCAACACAGCGUGGCAAAGUGGCUGUGGCUAGACUGCCCCUCUGGAUUCCUCGUCACUCAGCAGGGCAUCUCUGAGAGAAAUGCC [U5A C51A U62C U100C] reads 0.08; that for UACGAAGGUGGUUUUCCCCUGAUAGUGCUAAGGGGGCCUGGAAGUUUGGACUGGGCAGAGCUAAACACAGCGUGGCAAAGUGGCUGUGGCUAGACUGCCUCUCUGGAUUCCUCGUCACUCAGCAGGGCAUCUCUGAGAGAAACGCC [U5A C63A U143C], 0.11; that for UACUUAGGUGGUUUUCCCCUGAUAGUGCUAAGGGGGCCUGGAAGCUUGGGCUGGGCAGAGCUCAACACAGCGUGGCAAGGUGGCUGUGGCUAGACUGCCUCUCUGGAUUCCUCGUCACUCAGCAGGGCAUCUCUGAGGGAAAUGCC [G4U U45C A50G A79G A138G], 2.63. Take UACUCAGGUGGUUCUCCCCUGAUAGUGCUAAGGGGGCCUGGAAGUUUGGACUGGGCAGAGCUCAACACAGCGUGGCAAAGAGGCUGUGGCUAGACUGCCUCUCUGGAUUCCUCGUCACUCAGCAGGGCAUCUCUGAGAGAAAUGCC [G4U U5C U14C U81A]: the self-cleavage came to 1.09. The result for UACGAAGGUGGUUUUCCCCUGAUAGUGCUAAGGGGGCCUGGAAGUUUGGACUGGGCAGAGCUCAACACAGCGUGGCUAAGUGGCUGUGGCUAGACUGCCUCUCUGGGUUCCUCGUCACUCAGCAGGGCAUCUCUGAGAGAAAUGCC [U5A A77U A107G] reads 0.97; that for UACUUAGGUGGUUUUCCCCUGAUGGUGCUAAGGGGGCCUGGAAGUUUGGACUGGGCAGAGCUCAACGCAGCGUGGCAAAGUGGCUGUGGCUAGACUGCCUCUCUGGAUUCCUCGUCACUCAGCAGGGCAUCUCUGAGAGAAAUGCC [G4U A24G A67G], 0.52; that for UACUUAGGUGGUUUUCCCCUGAUAGUGCUAAGGGGGCCUGGAAGUUUGGACUGGGCUGAGCUCAACACAGCGUGGCAAAGUGGCUGUGGCUAGACUGCCUCUCUGGAUUCCUCGUCUCUCAGCAGGGCACCUCUGAGAGAAAUGCC [G4U A57U A117U U130C], 0.13. With UACGAAGGUGGUUUUCCCCUGAUAGUGCUAAGGGGGCCUGGAAGUUUGGACUGGGCAGAGCUCAACACAGCGUGGCAAAGUGGCUGUGGCUGGACUGCCUCUCUGGAUUCCUCGUCACUCAGCAGGGCAUCUCUGGGAGAAAUGCC [U5A A92G A136G] the figure was 0. The result for UACCUAGGUGGUUUUCCCCUGAUAGUGCUAAGGGGGCCUGGAAGUUUGGACUGGGCUGAGCUCAACACAGCGUGGCAAAGUGGCUGUGGCUAGACCGCCUCUCUGGGUUCCCCGUCACUCAGCAGGGCAUCUCUGAGAGAAAUGCC [G4C A57U U96C A107G U112C] reads 0; that for UACCUAGGUGGUUUUCCCCUGAUAGUGCUAAGGGGGCCUGGAAGUUUGGACUGGGCAGAGCUCAACACAGCGUGGCAGAGUGGCCGUGGCUAGACUGCCUCUCUGGAUUCCUCGUCACUCAGCAGGGCAUCUCUGAGAGAAAUGCC [G4C A78G U85C], 0.

With UACGAAGGUGGUUUUCCCCUGAUAGUGCUUAGGGGGCCUGGAAGUUUGGACUGGGCGGAGCUCAACACAGCGUGGCAAAGUGGCUGUGGCUAGACUGCCUCUCUGGAUUCCUCGUCACUCAGCAGGGCAUCUCUGAGAGAAAUGCC [U5A A30U A57G], the self-cleavage was found to be 0.55.

UACGAGGGUGGUUUUCCCCUGAUAGUGCUAAGGGGGCCUGGAAGUUUGGACUGGGCUGAGCUCAACACAGCGUGGCAAAGUGGCUGUGGCUAGACUGCCUCUCUGGAUUCCUCGUCACUCAGCAGGGCAUCUCUGAGAGAAAUGCC [U5A A6G A57U]: the self-cleavage came out at 0.28. With UACGAAGGUGGUUUUCCCCUGGUAGUGCUAAGGGGGCCUGGAAGUUUGGACUGGGCAGAGCUCAACACAGCGUGGCAAAGUGGCUGUGGCUAGACUGCCUCCCUGGAUUCCUCGUCACUCAGCAGGGCAUCUCUGAGAGAAAUGCC [U5A A22G U102C] the figure was 1.07; with UACGAAGGUGGUUUUCCCCUGAUAGUGCUAAGGGGGCCUGGAAGUUUGGACUGGGCAGAGCUCAGCACAGCGUGGCAAAGUGGCUGUGGCUAGACUGCCUCUCUGGAUUCCUCGUCACUCAGCAGGGCAUCUCUGAGAGAGAUGCC [U5A A65G A141G], 0.16. With UACGAAGGUGGUUUUCCCCUGAUAGUGCUAAGGGGGUCUGGAAGUUUGGACUGGGCAGAGCUCAACACAGCGUGGCAAAGUGGCUGUGGCUAGACUGCCUCUCUGGAUUCCUCGUCACUCACCAGGGCAUCUCCGAGAGAAAUGCC [U5A C37U G122C U134C] the figure was 1.43. In the case of UACCUAGGUGGUUUUCCCCUGAUAGUGCUAAGGGGGCCUGGAAGUUUGGACUGGGCAGAGCACAACACAGCGUGGCAAAGUGGCUGUGGCUAGACUGCCUCUCUGGAUUCCUCGUCACUCAGCAGGGCAUCUCUGAGAGAGAUGCC [G4C U62A A141G], the self-cleavage stood at 0.14. With UACGAAGGUGGUUUUCCCCUGAUAGUGCUAAGGGGGCCUGGAAGUUUGGACUGGGCAGAGCUCAACACAGCGUGGCAAGGUGGCUGUGGCUAGACUGCCUCUCUGGAUUCCUCGUCACUCAGCAGGGCAUCUCUGGGAGAAAUGCC [U5A A79G A136G] the figure was 0.71. UACUUAGGUGGUCUUCCCCUGAUAGUGCUAAGGGAGCCUGGAAGUUUGGACUGGGCAGAGCUCAACACAGCGUGGCAAAGUGGCUGUGGCUAGACUGCCUCUCUGGAUUCCUCGUCACUCAGCAGGGCAUCUCUGAGAGAAAUGCC [G4U U13C G35A]: the self-cleavage was 1.45. With UACGAAGGUGGUUUUCCCCUGAUAGUGCUAAGAGGGCCUGGAAGUUUGGACUGGGCAGAGCUCAACACAGCGUGGCGAAGUGGCUGUGGCUAGACUGCCUCUCUGGAUUCCUCGUCACUCAGCAGGGCAUCUCUGAGAGAAAUGCC [U5A G33A A77G] the figure was 1.56; with UACGAGGGUGGUUUUCCCCUGAUAGUGCUAAGGGGGCCUGGAAGUUUGGACUGGGCAGAGCUCAACACAGCGUGGCAAAGUGGCUGUGGCUAGACUGCCACUCUGGAUUCCUCGUCACUCAGCAGGGCAUCUCUGAGAGAAAUGCC [U5A A6G U100A], 1.27. With UACGAAGGUGGUUUUCCCCUGAUAGUGCUAAAGGGGCCUGGAAGUUUAGACUGGGCAGAGCUCAACACAGCGUGGCAAAGUGGCUGUGGCUAGACUGCCUCUCUGGAUUCCUCGUCACUCAGCAGGGCAUCUCUGAGAGAAAUGCC [U5A G32A G48A] the figure was 1.53. As to UACUCAGGUGGUUUUCCCCUGAUAGUGCUAAGGGGGCCUGGAAGUUUGGACUGGGCAGAGCUCAACACAGCGUGGCAAAGUGGCUGUGGCUAGUCUGCCUCUCUGGAUUCCUCGUCACUCAGCAAGGCAUCUCUGAGAGAAAUGCC [G4U U5C A94U G125A], the self-cleavage was found to be 0.46.
